This list was built around the results that the source calls inconclusive (neither active nor inactive); the mix of calls is not that of the screen. No potency is given beside an inconclusive call; the fits are too rough. The source made the active and inactive calls. Calls come from the whole dose curve; as a rule, active = well fitted curve in the direction sought with a large enough effect in the repeat runs; inconclusive = weak or mixed curves; inactive = no such curve, though single readings can be large; an effect the other way counts as inactive or inconclusive.
experiment: A CellTox Green Cytotoxicity Assay to monitor cytotoxicity in HEK293 cells - 16 hour (AID 1224888); conditions: CellTox Green fluorescence; series mostly up to 76.8 µM; note: nearly all actives have a fitted effect of over 35% in size
Outline: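 Each value comes from one timepoint of a single continuous run in which HEK293 cells with CellTox Green were exposed to compound for up to 40 h at 37 C, dye fluorescence rising with cell death.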
Potency is the fitted concentration of half-maximal effect; tags give direction and shape of the fitted curve.

Row | SMILES | Potency
1 | CCCCCCCCCCCCCCCCCC(=O)OCC(O)CO (stereo not given) | inactive
2 | c1ccc2c(c1)Oc1ccccc1S2 | inconclusive [activator, single point]
3 | NNc1nc(-c2ccc(N)cc2)cs1 | inactive
4 | Cc1cccc(C)c1NC(=O)CN1CCN(CCCC(c2ccc(F)cc2)c2ccc(F)cc2)CC1 | inconclusive [activator, partial curve, poor fit]

experiment: qHTS RealTime-Glo MT Cell Viability Assay in HepG2 cells - 0 hour (AID 1224889); conditions: RealTime-Glo luminescence; series mostly up to 76.8 µM; note: nearly all actives have a fitted effect of over 50% in size
Outline: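 HepG2 cells (600/well) were dispensed with RealTime-Glo reagents, incubated 5 h at 37 °C, then treated with compounds in DMSO for up to 40 h. Nonlytic NanoLuc luminescence reflecting viable cells was read at each stated time point.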

Row | SMILES | Potency
5 | CCCCCCCCCCCCCCCCCC(=O)OCC(O)CO (stereo not given) | inactive
6 | CN1CCC(=C2c3ccccc3C=Cc3ccccc32)CC1 | inconclusive [rising, partial curve, poor fit]
7 | NNc1nc(-c2ccc(N)cc2)cs1 | inconclusive [cytotoxic, partial curve, poor fit]
8 | COC(=O)C1=C(C)NC(COC(N)=O)=C(C(=O)OC(C)C)C1c1cccc(Cl)c1Cl (stereo not given) | active: 1.9 µM
9 | Cc1ccc(CCn2c3c(c4cc(Cl)ccc42)CN(C)CC3)cn1 | inconclusive [cytotoxic, partial curve]
10 | N#CSc1ccc(N)c([N+](=O)[O-])c1 | inactive

Reference: PubChem BioAssay (Tox21)
